Reference: publication PMC7254866 (ACS chemical biology, 2019)

System: Rg3GUS, Rh2GUS, H11G11, and FpL2-6
Assay: Inhibition of the four regorafenib-glucuronide processing GUS enzymes
Details: all four GUS enzymes

Cc1c(-c2ccc(O)cc2)n(Cc2ccc(OCCN3CCCCCC3)cc2)c2ccc(O)cc12 [bazedoxifene]
potency in comparison (in words): minor potency improvements over raloxifene
